# In PubChem BioAssay (NCATS):
# “And” between values parts separate entries of the source, which are not always exact repeats. Equal values may be shown once. The shares of active, inactive and inconclusive entries below differ from those in the screen. For part of these data: A potency beside an inconclusive call is a rough fit, not a confirmed value. For part of these data: A note “side channel” means that the fit belongs to a control or component signal, not to the main read-out. The source made the active and inactive calls. Unless noted, calls follow the shape of the dose curve; as a rule, active = well fitted curve in the direction sought with a large enough effect; inconclusive = small, poorly fitted or top-dose-only effect, or another doubt; inactive = no such curve, though single readings can be large; an effect the other way counts as inactive or inconclusive.
# Columns and labels:
# [1] = biological target: Chromobox protein homolog 1 (Homo sapiens) (UniProt P83916); assay: qHTS Validation Assay for Inhibitors of HP1-beta Chromodomain Interactions with Methylated Histone Tails (AID 488953); also: nearly all actives have a fitted effect of over 50% in size; also: potency is read from the fitted curve at half-maximal effect
# Summary of the method: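 50 nM HP1-beta + 50 nM biotin-H3(1-18)K9me3, PBS pH 7.4, 0.01% Tween-20, 30 min RT; compound added, 30 min RT; AlphaScreen beads 10 ug/mL final, 30 min dark; luminescence read.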
# [2] = biological target: Transient receptor potential cation channel subfamily V member 1 (Homo sapiens) (UniProt Q8NER1); assay: HTS Assay for Compounds that Act as Enhancers of the Vanilloid Receptor 1 (AID 488979); also: potency is read from the fitted curve at half-maximal effect
# Summary of the method: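 TRPV1 cells loaded with Fluo-8 calcium dye; compound added and Ca2+ signal (ex 480/em 520 nm) followed 3 min, then capsaicin at EC20 added and read 2 more min to detect enhancement.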
# [3] = biological target: ATPase family AAA domain-containing protein 5 (Homo sapiens) (UniProt Q96QE3); assay: Validation screen for small molecules that inhibit ELG1-dependent DNA repair in human embryonic kidney (HEK293T) cells expressing luciferase-tagged ELG1 (AID 493107); details: HEK293T ELG1-luciferase level, luminescence, 5-fluorouridine co-treatment, 16 h; series mostly up to 46.1 µM; also: potency is read from the fitted curve at half-maximal effect; nearly all actives have a fitted effect of over 70% in size
# Summary of the method: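 Luminescence from ONE-Glo, developed 30 min at room temperature, served as read-out of ELG1-luciferase levels. Beforehand, reporter HEK293T cells received 5-fluorouridine plus test compound for 16 hr at 37 °C.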
# [4] = biological target: Peptidyl-prolyl cis-trans isomerase NIMA-interacting 1 (Homo sapiens) (UniProt Q13526); assay: qHTS Validation Assay to Find Inhibitors of Pin1 (AID 504536; active = well fitted inhibition curve with a large enough effect in the polarisation, with a control signal flat, not every such curve was filed as active; inconclusive = small, poorly fitted or top-dose-only effect, or effect the other way; the % refers to the polarisation; also: potency is read from the fitted curve at half-maximal effect)
# Summary of the method: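 Fluorescence polarization competition: compounds (titration) displace HiFluor-488-labeled Pin1-1b peptide from Pin1 (0.3 uM final) in pH 7.5 HEPES buffer with DTT, 10 min at room temperature; %Activity normalized to no-enzyme wells, curves fitted.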
# [5] = biological target: phosphoglycerate mutase (Leishmania major) (UniProt Q4Q090); assay: qHTS Validation Assay to Find Inhibitors of Phosphoglycerate Mutase (AID 504548); details: Potency: inhibition qHTS; also: potency is read from the fitted curve at half-maximal effect
# Summary of the method: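 Inhibition of L. major PGAM was assessed by Kinase-GloPlus luminescence following a 45-minute room-temperature reaction with enzyme at 1.25nM final.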
# [6] = biological target: Ubiquitin carboxyl-terminal hydrolase 1 (Homo sapiens) (UniProt O94782); assay: Inhibitors of USP1/UAF1: Pilot qHTS (AID 504865); also: potency is read from the fitted curve at half-maximal effect;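 also: rhodamine fluorescence freed from ubiquitin-rhodamine substrate followed over time; nearly all actives have a fitted effect of over 35% in size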
# Summary of the method: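 Deubiquitinase activity followed as kinetic rhodamine fluorescence release from 150 nM Ub-Rho. 1 nM USP1/UAF1 with compound, after 15 min room-temperature preincubation, in HEPES pH 7.8 buffer containing TCEP, EDTA, BSA and Tween-20.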
# [7] = qHTS for Inhibitors of ATXN expression: Validation of Cytotoxic Assay (AID 588349); also: potency is read from the fitted curve at half-maximal effect
# Summary of the method: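 Read-out: ATP-based luminescence (CellTiter Glo) reflecting viability of HEK293 cells after 72 hr incubation at 37 degrees C with a concentration series of each compound.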
# [8] = qHTS for Inhibitors of ATXN expression: Validation (AID 588378); also: potency is read from the fitted curve at half-maximal effect; nearly all actives have a fitted effect of over 75% in size
# Summary of the method: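 Luciferase luminescence (Bright-Glo) from an ATXN2-FFLuc HEK293 line after 24 h compound exposure at 37 °C, preceded by a CellTiter-Fluor fluorescence viability read. Serial dilutions of a reference ATXN2 inhibitor and a luciferase inhibitor served as controls.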
# [9] = biological target: D(1A) dopamine receptor (Homo sapiens) (UniProt P21728); assay: HTS Assay for Allosteric Agonists of the Human D1 Dopamine Receptor: Primary Screen for Agonists (AID 488981); also: potency is read from the fitted curve at half-maximal effect; as to activation: 0% is about no effect
# Summary of the method: (§1)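 Tetracycline-induced HEK293 Trex D1 cells with forced coupling to calcium, loaded with no-wash calcium dye; kinetic fluorescence read 180 s after compound addition for agonism, then a further 180 s after an EC20 dopamine challenge for potentiation.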
# [10] = Nrf2 qHTS screen for inhibitors: Validation (AID 493153; active = well fitted inhibition curve with a large enough effect in the main read-out, with a control signal flat, not every such curve was filed as active; inconclusive = small, poorly fitted or top-dose-only effect, or effect the other way, or a change in a side signal; inactive = no such curve, though single readings can be large or run the other way;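 also: A549 cells with ARE-driven firefly luciferase reporter reporting Nrf2 activity; % of control where 0% means no effect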)
# Summary of the method: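 Luminescence from an ARE-firefly luciferase reporter in A549 cells gives Nrf2 inhibition; an earlier CellTiter-Fluor fluorescent read flags cytotoxicity. Cells in 5% FBS OPTI-MEM received compound dilution series for 18-24 h at 37°C.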
# [11] = qHTS for Inhibitors of Cell Surface uPA Generation: Validation Assay (AID 493164); details: mouse cells, plasminogen activation; also: potency is read from the fitted curve at half-maximal effect
# Summary of the method: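 RAW 264.7 cells (4000/well) were plated overnight, then exposed for 18 h at 37 C, 5% CO2 to compounds in a 7-point 1:5 titration (2.45 nM–38.3 uM final). Intracellular ATP was read by ATP-Lite luminescence.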
# [12] = Validation screen for small molecules that induce genotoxicity in human embryonic kidney (HEK293T) cells expressing luciferase-tagged ELG1 (AID 493106); also: potency is read from the fitted curve at half-maximal effect
# Summary of the method: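 Luminescence from an ELG1-luciferase fusion serves as the read-out, rising when genetic stress elevates ELG1 protein. HEK293T reporter cells (2,000 per well) received 23 nL compound, incubated 16 hr at 37 °C, then ONE-Glo for 30 min at room temperature.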
# [13] = Inducers of the Endoplasmic Reticulum Stress Response (ERSR) in human glioma: Validation (AID 504836); also: potency is read from the fitted curve at half-maximal effect
# Summary of the method: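 Stably transfected U87-MG glioma cells carrying a GRP78-based luciferase sensor; 16 h compound incubation. Luminescence end-point read 10 min after Bright-Glo addition at room temperature.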
# [14] = Validation screen for small molecules that induce DNA re-replication in SW480 colon adenocarcinoma cells (AID 504364); also: potency is read from the fitted curve at half-maximal effect
# Summary of the method: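 250 cells/well; compound pinned in; 48 hr, 37 C, 5% CO2; Hoechst added, 40 min; nuclear fluorescence imaged, 405 ex / 500-530 em; re-replication scored as increase in high-intensity nuclei.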
# [15] = biological target: D(1A) dopamine receptor (Homo sapiens) (UniProt P21728); assay: HTS Assay for Allosteric Agonists of the Human D1 Dopamine Receptor: Primary Screen for Potentiators (AID 488982); also: potency is read from the fitted curve at half-maximal effect
# Summary of the method: as §1
# [16] = biological target: Galactokinase (Homo sapiens) (UniProt P51570); assay: qHTS Validation Assay for Inhibitors of Human Galactokinase (GALK) (AID 493189); also: 0% is about no effect
# Summary of the method: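 Inhibition was measured as remaining ATP, detected by luciferase luminescence after a 1 h room-temperature reaction. Final conditions: 5 nM GALK, 100 uM galactose, 35 uM ATP, pH 8.0 HEPES buffer.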
# Tags tell the direction and shape of the fitted curve or compound fluorescence and quenching.
# Sequence of UniProt Q8NER1 (Q8NER1 whole entry, looked up): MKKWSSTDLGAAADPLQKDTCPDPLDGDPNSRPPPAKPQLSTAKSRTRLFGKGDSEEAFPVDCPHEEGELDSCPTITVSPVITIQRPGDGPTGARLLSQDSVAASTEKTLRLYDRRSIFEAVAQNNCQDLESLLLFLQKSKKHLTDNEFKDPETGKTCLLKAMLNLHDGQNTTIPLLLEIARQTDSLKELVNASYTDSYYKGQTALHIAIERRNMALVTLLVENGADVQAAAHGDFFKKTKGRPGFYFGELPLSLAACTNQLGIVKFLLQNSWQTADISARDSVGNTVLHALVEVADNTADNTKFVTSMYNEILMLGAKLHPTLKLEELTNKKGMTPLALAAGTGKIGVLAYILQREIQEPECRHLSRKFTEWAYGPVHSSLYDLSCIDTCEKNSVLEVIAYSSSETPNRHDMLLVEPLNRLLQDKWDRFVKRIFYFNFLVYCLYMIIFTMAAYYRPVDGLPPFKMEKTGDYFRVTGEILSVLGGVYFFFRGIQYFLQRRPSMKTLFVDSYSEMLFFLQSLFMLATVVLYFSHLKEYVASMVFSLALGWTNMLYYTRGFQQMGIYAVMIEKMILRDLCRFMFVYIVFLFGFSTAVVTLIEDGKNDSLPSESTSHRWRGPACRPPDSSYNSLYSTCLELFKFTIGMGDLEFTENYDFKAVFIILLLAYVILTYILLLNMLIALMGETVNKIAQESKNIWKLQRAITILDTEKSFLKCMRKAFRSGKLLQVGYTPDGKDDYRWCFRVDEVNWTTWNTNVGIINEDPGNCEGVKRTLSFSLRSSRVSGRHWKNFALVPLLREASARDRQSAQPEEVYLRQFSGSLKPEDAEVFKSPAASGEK
# Sequence of UniProt Q96QE3 (Q96QE3 whole entry, looked up, the tested form may be a part): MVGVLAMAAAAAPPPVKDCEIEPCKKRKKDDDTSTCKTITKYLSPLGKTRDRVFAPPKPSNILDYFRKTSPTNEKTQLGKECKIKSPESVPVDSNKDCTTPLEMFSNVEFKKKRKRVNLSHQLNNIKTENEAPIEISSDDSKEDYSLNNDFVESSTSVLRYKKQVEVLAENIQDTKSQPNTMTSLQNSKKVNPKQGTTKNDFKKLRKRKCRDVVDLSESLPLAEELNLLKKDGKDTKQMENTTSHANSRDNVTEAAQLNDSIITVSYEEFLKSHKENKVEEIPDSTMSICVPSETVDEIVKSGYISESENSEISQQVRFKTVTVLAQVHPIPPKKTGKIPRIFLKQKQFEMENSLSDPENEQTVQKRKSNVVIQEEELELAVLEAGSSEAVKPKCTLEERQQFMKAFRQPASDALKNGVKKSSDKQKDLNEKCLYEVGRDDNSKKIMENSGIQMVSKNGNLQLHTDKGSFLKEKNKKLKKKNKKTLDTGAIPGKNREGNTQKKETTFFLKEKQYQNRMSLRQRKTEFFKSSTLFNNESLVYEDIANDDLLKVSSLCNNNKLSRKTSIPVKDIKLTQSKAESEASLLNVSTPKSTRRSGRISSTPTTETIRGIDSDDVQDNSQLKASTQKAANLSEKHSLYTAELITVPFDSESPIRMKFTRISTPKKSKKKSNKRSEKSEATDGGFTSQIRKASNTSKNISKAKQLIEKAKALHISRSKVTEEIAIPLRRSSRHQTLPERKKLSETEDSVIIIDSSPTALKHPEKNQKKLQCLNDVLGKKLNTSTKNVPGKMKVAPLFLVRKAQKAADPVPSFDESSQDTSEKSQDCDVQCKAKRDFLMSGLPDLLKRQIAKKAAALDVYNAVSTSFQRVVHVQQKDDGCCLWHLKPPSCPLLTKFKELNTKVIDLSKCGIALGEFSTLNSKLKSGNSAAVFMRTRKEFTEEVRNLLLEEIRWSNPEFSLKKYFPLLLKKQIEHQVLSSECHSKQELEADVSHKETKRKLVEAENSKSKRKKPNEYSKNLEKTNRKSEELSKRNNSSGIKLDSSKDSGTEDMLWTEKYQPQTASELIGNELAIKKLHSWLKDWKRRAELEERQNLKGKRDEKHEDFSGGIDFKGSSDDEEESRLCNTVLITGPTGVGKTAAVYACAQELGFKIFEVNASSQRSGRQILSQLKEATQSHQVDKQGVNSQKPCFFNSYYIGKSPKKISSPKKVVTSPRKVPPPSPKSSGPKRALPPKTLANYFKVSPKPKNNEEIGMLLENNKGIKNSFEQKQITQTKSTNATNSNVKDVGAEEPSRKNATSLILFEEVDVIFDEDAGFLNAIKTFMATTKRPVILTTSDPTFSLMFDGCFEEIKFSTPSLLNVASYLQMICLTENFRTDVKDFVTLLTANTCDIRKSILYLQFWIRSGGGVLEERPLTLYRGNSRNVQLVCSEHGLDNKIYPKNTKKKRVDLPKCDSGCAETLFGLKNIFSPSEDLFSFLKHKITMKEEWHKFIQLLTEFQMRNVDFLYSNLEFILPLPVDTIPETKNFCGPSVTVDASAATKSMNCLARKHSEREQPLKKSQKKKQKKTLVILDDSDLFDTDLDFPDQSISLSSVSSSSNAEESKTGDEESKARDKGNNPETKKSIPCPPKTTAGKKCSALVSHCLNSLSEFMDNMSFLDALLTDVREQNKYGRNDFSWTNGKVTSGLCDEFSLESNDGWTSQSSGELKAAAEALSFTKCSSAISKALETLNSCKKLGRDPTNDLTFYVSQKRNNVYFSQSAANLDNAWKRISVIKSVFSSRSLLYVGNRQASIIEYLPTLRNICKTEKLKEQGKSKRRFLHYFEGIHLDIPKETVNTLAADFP
# Sequence of UniProt P21728 (P21728 whole entry, looked up): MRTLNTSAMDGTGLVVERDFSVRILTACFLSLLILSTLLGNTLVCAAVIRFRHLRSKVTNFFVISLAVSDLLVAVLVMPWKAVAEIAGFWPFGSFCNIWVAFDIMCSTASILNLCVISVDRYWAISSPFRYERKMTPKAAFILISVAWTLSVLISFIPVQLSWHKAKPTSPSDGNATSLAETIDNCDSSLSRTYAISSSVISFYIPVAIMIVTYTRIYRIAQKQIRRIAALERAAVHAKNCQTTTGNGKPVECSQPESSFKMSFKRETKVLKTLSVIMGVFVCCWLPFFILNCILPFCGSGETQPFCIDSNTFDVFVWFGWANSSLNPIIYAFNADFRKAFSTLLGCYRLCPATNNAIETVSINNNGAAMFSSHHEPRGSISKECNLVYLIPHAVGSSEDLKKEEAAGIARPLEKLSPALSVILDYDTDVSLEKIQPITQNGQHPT
# Sequence of UniProt P83916 (P83916 whole entry, looked up): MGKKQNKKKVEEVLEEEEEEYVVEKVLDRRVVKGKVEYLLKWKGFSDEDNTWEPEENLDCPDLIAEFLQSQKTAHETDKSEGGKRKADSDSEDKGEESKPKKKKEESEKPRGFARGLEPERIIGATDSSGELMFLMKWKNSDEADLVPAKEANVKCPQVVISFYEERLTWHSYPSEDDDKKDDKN
# Sequence of UniProt O94782 (O94782 whole entry, looked up): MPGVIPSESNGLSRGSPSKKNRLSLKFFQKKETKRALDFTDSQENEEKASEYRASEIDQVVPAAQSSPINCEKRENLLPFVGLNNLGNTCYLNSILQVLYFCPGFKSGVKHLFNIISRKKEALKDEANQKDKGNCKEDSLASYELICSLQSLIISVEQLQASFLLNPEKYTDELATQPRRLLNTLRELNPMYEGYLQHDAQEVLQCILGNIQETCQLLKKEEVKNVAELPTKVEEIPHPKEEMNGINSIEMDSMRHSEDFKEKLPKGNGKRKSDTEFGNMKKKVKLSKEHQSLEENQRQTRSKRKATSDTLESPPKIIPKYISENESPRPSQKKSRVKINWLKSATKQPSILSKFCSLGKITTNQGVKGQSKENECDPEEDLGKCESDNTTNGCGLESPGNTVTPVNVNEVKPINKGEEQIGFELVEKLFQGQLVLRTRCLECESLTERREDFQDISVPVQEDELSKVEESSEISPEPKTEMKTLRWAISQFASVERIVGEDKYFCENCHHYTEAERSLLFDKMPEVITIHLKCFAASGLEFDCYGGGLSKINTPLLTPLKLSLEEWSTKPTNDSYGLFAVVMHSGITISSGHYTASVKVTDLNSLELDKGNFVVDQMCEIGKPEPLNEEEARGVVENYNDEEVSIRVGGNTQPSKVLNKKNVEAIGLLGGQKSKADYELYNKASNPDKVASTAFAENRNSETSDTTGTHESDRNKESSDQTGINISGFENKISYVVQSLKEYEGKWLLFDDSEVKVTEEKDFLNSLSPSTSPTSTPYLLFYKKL
# Sequence of UniProt Q13526 (Q13526 whole entry, looked up): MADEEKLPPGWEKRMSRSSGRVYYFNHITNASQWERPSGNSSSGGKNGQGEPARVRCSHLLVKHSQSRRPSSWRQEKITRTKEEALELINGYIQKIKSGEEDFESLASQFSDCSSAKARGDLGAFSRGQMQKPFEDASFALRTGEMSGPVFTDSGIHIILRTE
# Sequence of UniProt P51570 (P51570 whole entry, looked up): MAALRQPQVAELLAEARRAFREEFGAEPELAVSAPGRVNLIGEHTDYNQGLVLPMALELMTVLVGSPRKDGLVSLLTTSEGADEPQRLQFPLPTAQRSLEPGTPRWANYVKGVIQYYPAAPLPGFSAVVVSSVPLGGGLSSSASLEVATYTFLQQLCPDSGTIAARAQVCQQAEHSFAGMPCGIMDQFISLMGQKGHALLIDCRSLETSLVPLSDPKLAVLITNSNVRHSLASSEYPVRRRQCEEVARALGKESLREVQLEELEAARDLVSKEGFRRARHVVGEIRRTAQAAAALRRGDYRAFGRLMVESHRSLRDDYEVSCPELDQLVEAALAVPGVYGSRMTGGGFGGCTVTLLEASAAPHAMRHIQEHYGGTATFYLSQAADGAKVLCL
smiles,measurement,setting,value
CCN(CC)CCCC(C)Nc1c2ccc(Cl)cc2nc2ccc(OC)cc12 (stereo not given),Potency,[1],"inconclusive: 50.1 µM [inhibitor, partial curve]"
same,Potency,[2],"inconclusive: 31.6 µM [activator, single point]"
same,Potency,[3],"inconclusive: 1.83 µM [activator, partial curve]"
same,Potency,[4],"inconclusive: 26.9 µM [fluorescent, side channel, partial curve]"
same,Potency,[5],"inconclusive: 5.36 µM [inhibitor, partial curve, poor fit]"
same,Potency,[6],active: 56.2 µM and active: 79.4 µM
same,Potency,[7],"inconclusive: 3.16 µM [cytotoxic, full curve, poor fit]"
same,Potency,[8],"inconclusive: 12.6 µM [inhibitor, partial curve, poor fit]"
Oc1ccc(/C=C/c2cc(O)cc(O)c2)cc1,Potency,[1],"inconclusive: 4.23e-05 µM [inhibitor, full curve, poor fit]"
same,Potency,[9],inactive
same,Potency,[3],"inconclusive: 6.51 µM [activator, partial curve]"
same,Potency,[10],inactive
same,Potency,[11],"inconclusive: 20.7 µM [activator, partial curve, poor fit]"
same,Potency,[7],"inconclusive: 35.5 µM [cytotoxic, partial curve, poor fit]"
CC(C)(C)c1ccc(S(=O)(=O)/C=C/C#N)cc1,Potency,[1],active: 44.7 µM
same,Potency,[2],"inconclusive: 11.2 µM [activator, single point]"
same,Potency,[12],"inconclusive: 29.1 µM [activator, single point]"
same,Potency,[3],"inconclusive: 29.1 µM [inhibitor, single point]"
same,Potency,[13],"inconclusive: 2.93 µM [activator, single point]"
same,Potency,[8],"inconclusive: 35.5 µM [inhibitor, single point]"
O=C(O)c1ccccc1Nc1ccccc1,Potency,[1],"inconclusive: 50.1 µM [inhibitor, partial curve]"
C[C@@]1(C2CCCC2)Cc2cc(OCC(=O)O)c(Cl)c(Cl)c2C1=O,Potency,[1],inactive
O=C(c1ccc(OCCCc2cnc[nH]2)cc1)C1CC1,Potency,[1],"inconclusive: 44.7 µM [inhibitor, partial curve]"
same,Potency,[9],"inconclusive: 15.8 µM [activator, single point]"
same,Potency,[12],"inconclusive: 23.1 µM [activator, single point]"
same,Potency,[3],"inconclusive: 9.2 µM [activator, partial curve]"
same,Potency,[4],inactive
same,Potency,[6],inactive
O=C1NC(=O)/C(=C/c2ccc3c(c2)OC(F)(F)O3)S1,Potency,[1],"inconclusive: 14.1 µM [inhibitor, full curve]"
same,Potency,[12],"inconclusive: 13 µM [activator, partial curve]"
same,Potency,[3],"inconclusive: 23.1 µM [activator, partial curve]"
O=C(c1ccccc1)c1ccc2n1CCC2C(=O)O (stereo not given),Potency,[1],"inconclusive: 89.1 µM [inhibitor, single point]"
same,Potency,[2],inactive
Nc1ccc(-c2ccc3ccccc3n2)cc1,Potency,[1],"inconclusive: 56.2 µM [inhibitor, partial curve, poor fit]"
same,Potency,[12],active: 2.59 µM
same,Potency,[3],"inconclusive: 1.64 µM [activator, partial curve]"
same,Potency,[14],"inconclusive: 23.1 µM [activator, partial curve, poor fit]"
CCc1cccc(N(C)C(N)=Nc2cccc3ccccc23)c1,Potency,[1],active: 0.0075 µM
same,Potency,[9],"inconclusive: 12.6 µM [activator, single point]"
same,Potency,[3],"inconclusive: 0.092 µM [inhibitor, full curve]"
same,Potency,[14],"inconclusive: 29.1 µM [activator, partial curve, poor fit]"
same,Potency,[6],inactive
same,Potency,[7],"inconclusive: 22.4 µM [cytotoxic, single point]"
same,Potency,[8],"inconclusive: 12.6 µM [inhibitor, partial curve, poor fit]"
S=C(Nc1ccccc1)Nc1nccs1,Potency,[1],"inconclusive: 35.5 µM [inhibitor, partial curve]"
same,Potency,[15],"inconclusive: 0.0037 µM [activator, full curve, poor fit]"
same,Potency,[12],active: 20.6 µM
same,Potency,[16],inactive
same,Potency,[14],"inconclusive: 16.4 µM [activator, single point]"
same,Potency,[13],"inconclusive: 18.5 µM [activator, single point]"
same,Potency,[7],"inconclusive: 39.8 µM [cytotoxic, single point]"
same,Potency,[8],"inconclusive: 39.8 µM [inhibitor, single point]"
O=C(/C=C/c1ccc(O)cc1)c1ccc(O)cc1O,Potency,[1],"inconclusive: 35.5 µM [inhibitor, full curve]"
same,Potency,[9],"inconclusive: 15.8 µM [activator, single point]"
same,Potency,[12],active: 8.2 µM
same,Potency,[3],"inconclusive: 2.31 µM [activator, full curve, poor fit]"
same,Potency,[14],"inconclusive: 20.6 µM [activator, single point]"
same,Potency,[5],"inconclusive: 37.9 µM [inhibitor, single point]"
same,Potency,[6],active: 79.4 µM
same,Potency,[7],"inconclusive: 39.8 µM [cytotoxic, partial curve, poor fit]"
